Hit rate of the full screen: of about 45,000 compounds, about 65 (0.1%) were called active. The call rests on the fitted dose curve; in most records, active means well fitted activation curve with a large enough effect; inconclusive means small, poorly fitted or top-dose-only effect; inactive means no such curve, though single readings can be large or run the other way. Some of the results follow.
Biological target: Galactocerebrosidase (Homo sapiens) (UniProt P54803)
Assay: A Novel Cell-Based Assay to Identify Small Molecules for B -Galactocerebrosidase; further: 0% is about no effect; nearly all actives have a fitted effect of over 65% in size
Conditions: 145M-Twi-hGALC-G270D cells (Twitcher mouse brain line with human GALC G270D), HMU-beta-Gal fluorescence, 48 h; series mostly up to 57.5 µM; activation: at the top concentration
In short: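 Live 145M-Twi cells (Twitcher mouse brain-derived, GALC-null) stably expressing human GALC-G270D, with a wild-type GALC line, were compound-treated. Residual GALC activity was then read as fluorescence from 0.1 mM final HMU-β-gal at pH 5.2; higher signal means activation.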

Chain of UniProt P54803 (P54803 whole entry, looked up): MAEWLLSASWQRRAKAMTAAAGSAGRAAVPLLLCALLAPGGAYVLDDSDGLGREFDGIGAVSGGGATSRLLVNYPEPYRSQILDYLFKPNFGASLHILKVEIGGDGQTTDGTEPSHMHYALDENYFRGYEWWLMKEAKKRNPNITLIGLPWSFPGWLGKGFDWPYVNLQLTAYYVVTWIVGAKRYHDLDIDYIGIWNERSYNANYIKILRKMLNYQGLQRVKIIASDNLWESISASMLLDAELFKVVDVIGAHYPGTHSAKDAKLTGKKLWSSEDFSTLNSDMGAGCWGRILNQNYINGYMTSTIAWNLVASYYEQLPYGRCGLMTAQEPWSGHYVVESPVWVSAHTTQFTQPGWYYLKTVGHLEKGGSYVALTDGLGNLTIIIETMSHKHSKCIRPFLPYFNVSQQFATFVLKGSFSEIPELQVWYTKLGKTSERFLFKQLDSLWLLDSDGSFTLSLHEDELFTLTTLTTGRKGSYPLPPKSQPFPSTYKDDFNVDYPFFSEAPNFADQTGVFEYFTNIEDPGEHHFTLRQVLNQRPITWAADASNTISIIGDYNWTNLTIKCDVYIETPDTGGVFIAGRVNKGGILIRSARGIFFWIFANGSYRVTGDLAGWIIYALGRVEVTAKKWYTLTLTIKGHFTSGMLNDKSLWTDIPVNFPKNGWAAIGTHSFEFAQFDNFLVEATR

Row | Compound | activation
1 | Cc1cccc(C(=O)Nc2cccc(C(=O)OCc3cc(=O)n4ccsc4n3)c2)c1 | inactive: -22%
2 | CCC(C(=O)NCc1ccccc1)n1ncn2c(cc3occc32)c1=O (stereo unspecified) | inactive: -8.02%
3 | Cc1ccc(NC(=O)c2cc3c(=O)n(Cc4cccnc4)ccc3nc2C)cc1F | inactive: -19%
4 | COc1ccc(Br)cc1CNC(=O)CN1C(=O)CSc2ccc(S(=O)(=O)N3CCOCC3)cc21 | inactive: -14%
5 | NS(=O)(=O)c1cc2c(cc1Cl)NC=NS2(=O)=O | inactive: -14.9%
6 | COc1ccc(OC)c(CNC(=O)c2cccc(NC(=O)N3CCSc4ncccc43)c2)c1 | inactive: -13.9%
7 | CC(C)Sc1ncc(Cl)c(C(=O)Nc2ccc(S(=O)(=O)N3CCCCC3C)cc2)n1 (stereo unspecified) | inactive: -27.2%
8 | O=c1c2oc3ccccc3c2n(Cc2cccc(C(F)(F)F)c2)c(=O)n1Cc1ccc2c(c1)OCO2 | inactive: -3.64%
9 | Cc1ccc(-n2nc(C)c3nc(CCC(=O)Nc4ccc(F)cc4)c(=O)n(C)c32)cc1 | inactive: -11.2%
10 | CCn1cc(C(=O)NC(C)c2ccccc2)c(=O)c2cc(S(=O)(=O)N3CCc4ccccc4C3)ccc21 (stereo unspecified) | inactive: -5.9%
11 | CCOc1ccccc1N(C)C(=O)NCc1noc2ccccc12 | inactive: -12.4%
12 | O=C(NCCc1ccc(Cl)cc1)c1cccn1-c1nnc(N2CCCC2)s1 | inactive: -26.4%
13 | COc1ccc(C(=O)c2cn(CC(=O)Nc3ccc4c(c3)OCO4)c3ccc(OC)cc3c2=O)cc1 | inactive: -11.4%
14 | CC(C)Nc1cccnc1N1CCN(C(=O)c2cc3cc(NS(C)(=O)=O)ccc3[nH]2)CC1 | inactive: -15.9%
15 | Cc1ccc(NC(=O)Cn2cc(S(=O)(=O)N3CCCC3)c(S(=O)(=O)N3CCCC3)c2)c(C)c1 | inactive: -15.1%
16 | COc1ccc(C(=O)N2CCC(C(=O)Nc3ccccc3Cl)CC2)cc1 | inactive: 0.501%
17 | CCCn1cc(S(=O)(=O)c2ccccc2)c(=O)c2cc(F)c(N3CCCC3)cc21 | inactive: 11.1%
18 | CCc1ccccc1NC(=O)c1cc(S(=O)(=O)NC2CCCC2)ccc1F | inactive: -7.62%
19 | Cc1ccc(C(=O)N/C(=C\c2cn(S(=O)(=O)N(C)C)c3ccccc23)C(=O)NCCCn2ccnc2)cc1 | inactive: -22.4%
20 | COc1ccc(NC(=O)c2ccco2)cc1NC(=O)COc1ccccc1Cl | inactive: -21.6%
21 | CCCn1ccc2c(OCC(=O)Nc3ccc(F)cc3F)cccc2c1=O | inactive: -9.64%
22 | Cc1cccc(OCC(=O)Nc2ccc3c(c2)N(C)C(=O)c2ccccc2S3)c1 | inactive: -15.1%
23 | COc1ccc(-n2nc(C(=O)N3CCN(c4cccc(C)c4)C(C)C3)c3c4ccccc4n(C)c3c2=O)cc1 (stereo unspecified) | inactive: -15.1%

Row | Compound | activation
24 | Nc1ccc(S(=O)(=O)Nc2ccccc2)cc1 | inactive: -15%
25 | Cc1cccc(NC(=O)CSc2nc3c([nH]c4ccccc43)c(=O)n2-c2ccc(F)cc2)c1C | inactive: -15.8%
26 | CC1CN(C(=O)Nc2ccc(C(=O)NCCc3ccccc3Cl)cc2)c2ccccc2S1 (stereo unspecified) | inactive: -7.52%
27 | CC(CNC(=O)CN1C(=O)COc2ccc(S(=O)(=O)N3CCCCC3)cc21)c1ccccc1 (stereo unspecified) | inactive: -14%
28 | Cc1ccc(-n2ncc(C(=O)NCCCN3CCc4ccccc4C3)c2C2CCN(C(=O)OC(C)(C)C)CC2)cc1C | inactive: -9.07%
29 | COc1ccc2c(c1)c1c(c(=O)n(Cc3ccccc3)c(=O)n1Cc1ccc(C)cc1)n2C | inactive: 2.83%
30 | Cc1ccccc1C(=O)Nc1ccc(C(=O)OCc2cc(=O)n3nc(C4CC4)sc3n2)cc1 | inactive: -17.2%
31 | O=C(Nc1ccc(Cl)cc1)C1CCN(S(=O)(=O)c2ccc(Br)s2)CC1 | inactive: -9.37%
32 | COc1ccc(-c2cc(C(F)(F)F)n3nc(C(=O)Nc4sc5c(c4C#N)CCC(C)C5)cc3n2)cc1OC (stereo unspecified) | inactive: -9.53%
33 | CCC(C)NC(=O)c1[nH]c2cc(OC)ccc2c1Sc1ccc(C)cc1 (stereo unspecified) | inactive: -30.3%
34 | CCOC(=O)C1CCN(C(=O)c2cc3ccc4ccc(C)[nH]c4c3n2)CC1 | inactive: -14%
35 | CCC1CN(C(=O)Nc2ccccc2C(F)(F)F)c2ccccc2S1 (stereo unspecified) | inactive: -2.13%
36 | CCOC(=O)c1cccc(NC(=O)c2cnn(-c3ccccc3)c2-n2cccc2)c1 | inactive: -12.3%
37 | CC(=O)c1ccc(N2CCN(S(=O)(=O)c3ccc4[nH]c5c(c4c3)CCCCC5)CC2)cc1 | inactive: -24.9%
38 | O=C(CSCc1cc(=O)c2ccccc2[nH]1)Nc1cccc(C(F)(F)F)c1 | inactive: -22.4%
39 | CC(=O)N1c2ccccc2C(=O)C1N1CCN(c2cc(Cl)ccc2C)CC1 (stereo unspecified) | inactive: 3.89%
40 | COC(=O)c1scc(-c2ccc(C)cc2)c1S(=O)(=O)Nc1c(C)cc(C)cc1C | inactive: -19.1%
41 | COc1ccc(NC(=O)CN2C(=O)CC(c3ccco3)Sc3ccccc32)cc1OC (stereo unspecified) | inactive: -3.11%
42 | CCS(=O)(=O)c1ncc(N(Cc2cccc(F)c2)Cc2ccco2)c(C(=O)Nc2ccccc2Cl)n1 | inactive: -8.87%
43 | Cc1nc2c(-c3ccccc3)c(C)[nH]n2c(=O)c1Cc1ccc(C(C)C)cc1 | inactive: -29.4%
44 | CCC1CN(C(=O)N2CCC(C(=O)N(C)Cc3ccccc3)CC2)c2ccccc2O1 (stereo unspecified) | inactive: 2.22%
45 | Cc1ccc2nc(CN3CCN(C(=O)Nc4cccc(C)c4C)CC3)oc2c1 | inactive: -12.1%
46 | Cc1ccc(CNC(=O)c2cc(S(=O)(=O)N3CCCCC3)cn2C)cc1 | inactive: -19.9%

From PubChem BioAssay AID1159614 (National Center for Advancing Translational Sciences (NCATS), 2016)
